Experimental data published in the supplement of paper PMC6089552.
Out of some 3,200 compounds screened, about 300 (9.4%) showed activity. This is a selection; strong and weak results do not stand in their true shares.

Tested on: A673/TR/shEF
Test: cell viability (LOESS-normalised, relative to median of negative controls) (log2 ratio); higher = more viable cells (less compound effect), active = hit call of the paper (over 3 MAD below the median)
Settings: treatment time: 72 h
How it was run: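 Viability of A673/TR/shEF Ewing sarcoma cells was determined by CellTiter-Glo luminescence. The cells, at 1,500 per well in 384-well plates, were grown with or without doxycycline from 24 h before compound addition to switch on EWS-FLI1 shRNA knockdown, then exposed for three days to library compounds at two or more concentrations or to DMSO controls. Signals were LOESS-corrected plate by plate, normalised to the negative-control median and log2-transformed.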

[1] = 0.25 µM, library screen: screen1, EWS-FLI1 expression: high (no doxycycline)
[2] = 0.25 µM, library screen: screen1, EWS-FLI1 expression: low (doxycycline-induced shRNA knockdown)
[3] = 2.5 µM, library screen: screen1, EWS-FLI1 expression: high (no doxycycline)
[4] = 2.5 µM, library screen: screen1, EWS-FLI1 expression: low (doxycycline-induced shRNA knockdown)
[5] = 0.25 µM, library screen: screen2, EWS-FLI1 expression: high (no doxycycline)
[6] = 0.25 µM, library screen: screen2, EWS-FLI1 expression: low (doxycycline-induced shRNA knockdown)
[7] = 2.5 µM, library screen: screen2, EWS-FLI1 expression: high (no doxycycline)
[8] = 2.5 µM, library screen: screen2, EWS-FLI1 expression: low (doxycycline-induced shRNA knockdown)
[9] = 0.103 µM, library screen: screen3, EWS-FLI1 expression: high (no doxycycline)
[10] = 0.103 µM, library screen: screen3, EWS-FLI1 expression: low (doxycycline-induced shRNA knockdown)
[11] = 0.308 µM, library screen: screen3, EWS-FLI1 expression: high (no doxycycline)
[12] = 0.308 µM, library screen: screen3, EWS-FLI1 expression: low (doxycycline-induced shRNA knockdown)
[13] = 0.926 µM, library screen: screen3, EWS-FLI1 expression: high (no doxycycline)
[14] = 0.926 µM, library screen: screen3, EWS-FLI1 expression: low (doxycycline-induced shRNA knockdown)
[15] = 2.8 µM, library screen: screen3, EWS-FLI1 expression: high (no doxycycline)
[16] = 2.8 µM, library screen: screen3, EWS-FLI1 expression: low (doxycycline-induced shRNA knockdown)
[17] = 8.3 µM, library screen: screen3, EWS-FLI1 expression: high (no doxycycline)
[18] = 8.3 µM, library screen: screen3, EWS-FLI1 expression: low (doxycycline-induced shRNA knockdown)
[19] = 25 µM, library screen: screen3, EWS-FLI1 expression: high (no doxycycline)
[20] = 25 µM, library screen: screen3, EWS-FLI1 expression: low (doxycycline-induced shRNA knockdown)

Measured: cell viability (log2)

O=C(Cc1cccs1)N[C@@H]1C(=O)N2C(C(=O)[O-])=C(C[n+]3ccccc3)CS[C@H]12
inactive: [1] 0.0672 | [2] 0.063 | [3] 0.0813 | [4] 0.141

CCCCOC(=O)NS(=O)(=O)c1sc(CC(C)C)cc1-c1ccc(Cn2c(CC)nc3c(C)cc(C)nc32)cc1
inactive: [5] 0.0975 | [6] 0.0722 | [7] 0.0232 | [8] 0.0472

COc1cc(-c2coc3cc(O)c(OC)c(O)c3c2=O)cc(O)c1OC
inactive: [1] 0.0734 | [2] 0.118 | [3] 0.0492 | [4] 0.148

CCOC(=O)OC(C)OC(=O)[C@@H]1N2C(=O)[C@@H](NC(=O)[C@H](N)c3ccccc3)[C@H]2SC1(C)C (stereo partly specified)
inactive: [1] 0.122 | [2] 0.134 | [3] 0.137 | [4] 0.183

COc1cc2c(cc1OC)-c1cc(=Nc3c(C)cc(C)cc3C)n(C)c(=O)n1CC2
inactive: [5] 0.196 | [6] 0.0633 | [7] 0.231 | [8] 0.0686

Cc1cccc(-n2ncc3c(N4CCOCC4)ncnc32)c1
inactive: [1] 0.0669 | [2] 0.0823 | [3] 0.13 | [4] 0.108

CC(C)CCC[C@@H](C)[C@H]1CC[C@H]2[C@@H]3CC[C@H]4C[C@H](O)CC[C@]4(C)[C@H]3CC[C@]12C
inactive: [1] 0.14 | [2] 0.0986 | [3] 0.118 | [4] 0.0759

CCOC(=O)[C@H](CCc1ccccc1)N[C@H]1CCc2ccccc2N(CC(=O)O)C1=O
inactive: [9] 0.00565 | [10] 0.0483 | [11] -0.00821 | [12] 0.00175 | [13] 0.0846 | [14] 0.0215 | [15] 0.0825 | [16] 0.0572 | [17] 0.0213 | [18] 0.0268 | [19] 0.0743 | [20] 0.12

O=C1CCC(c2ccc(-n3ccnc3)cc2)=NN1
inactive: [5] 0.143 | [6] 0.0315 | [7] 0.00333 | [8] 0.0434

CCNC(=O)N1CCN(CCCC(c2ccc(F)cc2)c2ccc(F)cc2)CC1
inactive: [5] 0.00858 | [6] 0.124 | [7] 0.161 | [8] 0.112

Fc1ccc(C(OCCCc2cnc[nH]2)c2ccc(F)cc2)cc1
inactive: [5] 0.0882 | [6] 0.119 | [7] 0.204 | [8] 0.117

CCC(=O)N1CCN(C(=O)c2ccccc2)CC1
inactive: [5] 0.205 | [6] 0.0729 | [7] 0.156 | [8] 0.0547

CC(C)(C)Cn1c(N)nc2ccc(-c3[nH]c(C(C)(C)C)nc3-c3ccc(F)cc3)nc21
inactive: [9] -0.0145 | [10] 0.0335 | [11] 0.0265 | [12] 0.0944 | [13] -0.0762 | [14] 0.0963 | [15] -0.0688 | [16] 0.0594 | [17] -0.0599 | [18] 0.0782 | [19] -0.113 | [20] 0.0298

CCCN[C@H]1CCc2nc(N)sc2C1
inactive: [9] -0.035 | [10] 0.0257 | [11] 0.0431 | [12] 0.0549 | [13] 0.0727 | [14] 0.0205 | [15] 0.00554 | [16] 0.0468 | [17] 0.0176 | [18] 0.0127 | [19] 0.142 | [20] 0.0265

Cc1cc(=O)oc2cc(O)ccc12
inactive: [1] 0.129 | [2] 0.0733 | [3] 0.103 | [4] -0.0344

CNC(=O)c1cc2c(cn1)[nH]c1ccccc12
inactive: [5] 0.143 | [6] 0.0456 | [7] 0.152 | [8] 0.0711

COc1ccc(CN(CCN(C)C)c2ccccn2)cc1
inactive: [1] 0.113 | [2] 0.0588 | [5] 0.219 | [6] 0.0808 | [3] 0.0854 | [4] 0.142 | [7] 0.163 | [8] 0.08

CCCNC(C)C(=O)Nc1ccccc1C (stereo unspecified)
inactive: [9] 0.187 | [10] 0.0075 | [1] 0.071 | [2] 0.00964 | [5] 0.214 | [6] 0.121 | [11] 0.0836 | [12] 0.0428 | [13] 0.107 | [14] 0.0769 | [3] 0.133 | [4] 0.124 | [7] 0.311 | [8] 0.0463 | [15] 0.0516 | [16] 0.0622 | [17] 0.0873 | [18] 0.0831 | [19] 0.0931 | [20] 0.0991
